Among all 350,000 compounds or so, about 31,000 (8.9%) were called active. Inconclusive means that the source gave no clear call. Such entries were picked first, then a sample of the others. Calls come from the whole dose curve; as a rule, active = well fitted inhibition curve with a large enough effect; inconclusive = small, poorly fitted or top-dose-only effect; inactive = no such curve, though single readings can be large or run the other way. Potencies beside an inconclusive call are fits to weak or partial responses and may not hold up.
What follows are molecules tested against Histone-lysine N-methyltransferase EHMT2 (Homo sapiens) (UniProt Q96KQ7) (assay: qHTS Assay for Inhibitors of Histone Lysine Methyltransferase G9a). Conditions: G9a H3K9 monomethylation, AlphaScreen, 2 h; activity, negative = inhibition: at 59 µM (top of the series) unless noted.
Sequence of UniProt Q96KQ7 (Q96KQ7 whole entry, looked up): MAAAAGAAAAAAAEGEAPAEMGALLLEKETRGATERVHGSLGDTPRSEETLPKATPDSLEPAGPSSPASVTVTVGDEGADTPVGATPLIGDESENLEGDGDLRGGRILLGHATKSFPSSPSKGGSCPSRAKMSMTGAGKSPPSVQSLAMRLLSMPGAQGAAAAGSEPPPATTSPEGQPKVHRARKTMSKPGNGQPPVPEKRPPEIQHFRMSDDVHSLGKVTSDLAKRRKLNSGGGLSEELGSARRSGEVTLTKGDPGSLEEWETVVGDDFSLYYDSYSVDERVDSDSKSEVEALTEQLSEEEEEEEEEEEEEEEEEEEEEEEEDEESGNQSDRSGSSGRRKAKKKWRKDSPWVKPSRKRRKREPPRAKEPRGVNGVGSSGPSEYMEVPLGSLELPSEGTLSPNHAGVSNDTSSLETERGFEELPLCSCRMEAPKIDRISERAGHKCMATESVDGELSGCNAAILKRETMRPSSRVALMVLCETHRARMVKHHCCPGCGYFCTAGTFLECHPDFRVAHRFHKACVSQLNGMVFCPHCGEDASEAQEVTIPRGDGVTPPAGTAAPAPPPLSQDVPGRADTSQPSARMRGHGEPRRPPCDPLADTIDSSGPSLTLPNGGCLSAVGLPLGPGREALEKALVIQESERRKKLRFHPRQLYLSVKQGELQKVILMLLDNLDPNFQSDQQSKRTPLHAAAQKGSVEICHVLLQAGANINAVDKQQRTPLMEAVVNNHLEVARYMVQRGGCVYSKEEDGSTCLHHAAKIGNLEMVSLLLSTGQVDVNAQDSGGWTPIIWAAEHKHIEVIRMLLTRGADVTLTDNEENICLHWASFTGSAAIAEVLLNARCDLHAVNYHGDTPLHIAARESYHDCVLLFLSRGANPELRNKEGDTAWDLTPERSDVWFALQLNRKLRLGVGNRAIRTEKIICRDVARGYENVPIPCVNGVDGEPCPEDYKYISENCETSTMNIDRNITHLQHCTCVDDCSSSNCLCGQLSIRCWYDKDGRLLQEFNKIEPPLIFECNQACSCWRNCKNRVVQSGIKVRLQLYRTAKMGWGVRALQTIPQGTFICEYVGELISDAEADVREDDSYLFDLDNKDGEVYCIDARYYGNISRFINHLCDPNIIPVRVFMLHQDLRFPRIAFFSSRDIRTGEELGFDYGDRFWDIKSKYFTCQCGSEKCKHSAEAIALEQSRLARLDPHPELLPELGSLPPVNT
Summary of the method: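 AlphaScreen detection with an anti-monomethyl H3K9 antibody quantified product after a 2 h room-temperature reaction containing 500 nM biotinylated H3K9 peptide, 20 µM SAM and 20 nM enzyme, which had been preincubated 15 min with compound.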
% is set by controls: 0 for no effect and ±100 for the full control effect; potency is the fitted concentration of half-maximal effect; tags give direction and shape of the fitted curve.
Note: nearly all actives have a fitted effect of over 75% in size.

**Q.** How did the Potency turn out when Cc1cc2nc(-c3cccnc3SCC(=O)NC(C)C)[nH]c2cc1C was run?
**A.** inconclusive: 44.7 µM [inhibitor, partial curve]

**Q.** How did the Potency turn out when CCOC(=O)c1c(NC(C)=O)sc2c(O)cccc12 was run?
**A.** inconclusive: 20 µM [inhibitor, single point]

**Q.** For COc1ccc(C(=O)N/N=C/c2ccc3cccc(O)c3n2)cc1, which Potency is on record?
**A.** inconclusive: 39.8 µM [inhibitor, partial curve]

**Q.** Oc1ccc(Nc2nc(N3CCCC3)c3ccccc3n2)cc1 was tested. Which Potency did it give?
**A.** active: 39.8 µM

**Q.** For COc1ccc(N2CCN(C(=O)CN3C(=O)C4CC=CCC4C3=O)CC2)cc1 (stereo not given), which Potency is on record?
**A.** inconclusive: 6.31 µM [inhibitor, single point]

**Q.** For CCOc1cc(N2CCOCC2)c(OCC)cc1NC(=O)c1nn(CC)c(=O)c2ccccc12, which Potency is on record?
**A.** inconclusive: 8.91 µM [inhibitor, single point]

**Q.** How did the Potency turn out when Cc1cc(C)n(-c2ccc(Cl)c(C(=O)OCC(=O)N3CCCCC3C)n2)n1 (stereo not given) was run?
**A.** inconclusive: 0.158 µM [inhibitor, full curve, poor fit]

**Q.** Which activity, negative = inhibition does the source give for O=[N+]([O-])c1cc(Cl)ccc1NCCNc1ncc(C(F)(F)F)cc1Cl here?
**A.** inconclusive: -65.9% [inhibitor]

**Q.** Nn1c(SCC(=O)Nc2ccccc2Oc2ccccc2)nnc1C1CC1 was tested. Which Potency did it give?
**A.** active: 50.1 µM

**Q.** Which Potency does the source give for O=C(NCCN1CCOCC1)/C(=C/c1ccc(F)cc1)NC(=O)c1ccccc1 here?
**A.** inactive

**Q.** CC(C)C(c1nnnn1Cc1ccccc1)N1CCc2ccccc2C1 (stereo not given) was tested. Which activity, negative = inhibition did it give?
**A.** inconclusive: -73.9% [inhibitor]

**Q.** For Cc1ccc(C)c(SCC(=O)Nc2cc(C)nn2-c2ccc(F)cc2)c1, which Potency is on record?
**A.** active: 11.2 µM

**Q.** Which Potency does the source give for CCc1ccc(C(=O)CSc2ncn[nH]2)cc1 here?
**A.** active: 8.91 µM

**Q.** Which Potency does the source give for Cc1ccc(C2C(C(=O)c3cc4ccccc4o3)=C(O)C(=O)N2CCN2CCOCC2)o1 (stereo not given) here?
**A.** inconclusive: 12.6 µM [inhibitor, partial curve, poor fit]

**Q.** For c1ccc2c(-c3cc(C4CCNCC4)[nH]n3)cccc2c1, which Potency is on record?
**A.** inconclusive: 50.1 µM [inhibitor, partial curve]

**Q.** Which Potency does the source give for CCOc1ccc(/C=N/NC(=O)c2cc3ccccc3cc2OC)cc1 here?
**A.** inactive

**Q.** How did the activity, negative = inhibition turn out when CSc1ccccc1NC(=O)c1ccncc1 was run?
**A.** inconclusive: -70.2% [inhibitor]

**Q.** Which Potency does the source give for COc1ccc(C(=O)COC(=O)c2n[nH]c3ccccc23)c(OC)c1 here?
**A.** inconclusive: 50.1 µM [inhibitor, partial curve]

**Q.** For Nc1cc(C(=O)N2CCN(c3ccc([N+](=O)[O-])cc3)CC2)ccc1N1CC2CC(C1)c1cccc(=O)n1C2 (stereo not given), which Potency is on record?
**A.** inconclusive: 89.1 µM [inhibitor, single point]

**Q.** Which Potency does the source give for CSc1ccccc1C(=O)Nc1cccc(C(C)=O)c1 here?
**A.** inconclusive: 50.1 µM [inhibitor, partial curve]

**Q.** Which activity, negative = inhibition does the source give for Cc1c(Cl)c([N+](=O)[O-])nn1CCCC(=O)Nc1sc2c(c1C#N)CCC2 here?
**A.** inconclusive: -129% [inhibitor]

**Q.** CCOc1cc(/C=C2\N=C(SC)SC2=O)cc([N+](=O)[O-])c1OC(C)=O was tested. Which Potency did it give?
**A.** active: 14.1 µM

**Q.** Which Potency does the source give for O=C(CSc1cccc[n+]1[O-])c1ccccc1Br here?
**A.** active: 0.501 µM

**Q.** With CCCCNC(=O)c1cc([N+](=O)[O-])[nH]n1 as the molecule, how does the Potency read?
**A.** inconclusive: 35.5 µM [inhibitor, partial curve, poor fit]

**Q.** CC(C)CC1NC(=S)N(C2CCCCC2)C1=O (stereo not given) was tested. Which Potency did it give?
**A.** inactive

**Q.** How did the Potency turn out when Cc1cc(C)c2cc(C(c3nnnn3CC3CCCO3)N3CCN4CCCC4C3)c(=O)[nH]c2c1 (stereo not given) was run?
**A.** inconclusive: 39.8 µM [inhibitor, single point]

**Q.** Which Potency does the source give for COc1ccc(C(=O)N/C(=C\c2cn(S(=O)(=O)N(C)C)c3ccccc23)C(=O)NC(C)C)cc1 here?
**A.** inconclusive: 35.5 µM [inhibitor, partial curve, poor fit]

**Q.** Which Potency does the source give for COC(=O)C1=C(C)N(CCc2c[nH]c3ccccc23)C(=O)C1 here?
**A.** inconclusive: 10 µM [inhibitor, partial curve, poor fit]

**Q.** Which Potency does the source give for CCCCN1C(=O)C(=O)N(CC(=O)Nc2sc(CC)cc2C(=O)OCC)C1=O here?
**A.** inconclusive: 50.1 µM [inhibitor, partial curve, poor fit]

**Q.** For N#Cc1ccc2c(c1)C[C@]1(CCCCN3C(=O)c4ccccc4C3=O)Oc3c(c(=O)oc4ccccc34)C2O1, which activity, negative = inhibition is on record?
**A.** inactive: 12.2% [at 2.33 µM]

**Q.** With Cc1ccc(N=Cc2c(O)[nH]c3ccccc23)c([N+](=O)[O-])c1 as the molecule, how does the Potency read?
**A.** inconclusive: 89.1 µM [inhibitor, single point]

**Q.** With COc1cc(/C(C)=N/NC(=O)CN2CCN(S(=O)(=O)c3ccc(C)cc3)CC2)ccc1O as the molecule, how does the Potency read?
**A.** inconclusive: 89.1 µM [inhibitor, single point]

**Q.** How did the Potency turn out when COc1ccc(Cl)cc1NC(=O)c1cnc2n(c1=O)CCS2 was run?
**A.** inconclusive: 50.1 µM [inhibitor, partial curve]

**Q.** COc1ccc2[nH]c(C)c(CCNC(=S)Nc3cccc(C)c3C)c2c1 was tested. Which Potency did it give?
**A.** inconclusive: 39.8 µM [inhibitor, partial curve, poor fit]

**Q.** With CCN1/C(=C2\C(=O)N(C)C(=S)N2C)C=Cc2ccccc21 as the molecule, how does the Potency read?
**A.** active: 10 µM

**Q.** For OC(CNCc1ccccc1Cl)C(F)(F)F (stereo not given), which Potency is on record?
**A.** inactive

**Q.** With O=C1CCCN1CCCNCC(=O)N1c2ccccc2Sc2ccccc21 as the molecule, how does the Potency read?
**A.** inconclusive: 3.16 µM [inhibitor, partial curve, poor fit]

**Q.** O=C(CSc1n[nH]c(-c2ccco2)n1)N1c2ccccc2Sc2ccccc21 was tested. Which Potency did it give?
**A.** active: 50.1 µM

**Q.** COc1ccc(Br)cc1/C=N/n1c(C)nnc1C was tested. Which Potency did it give?
**A.** inactive

**Q.** With O=C(CC(SCCO)c1ccc([N+](=O)[O-])cc1)c1ccco1 (stereo not given) as the molecule, how does the Potency read?
**A.** inconclusive: 89.1 µM [inhibitor, single point]

**Q.** Which Potency does the source give for COc1ccccc1NC(=O)N1CCCC1C(=O)Nc1ccc2c(c1)OCCO2 (stereo not given) here?
**A.** inconclusive: 35.5 µM [inhibitor, partial curve, poor fit]

**Q.** For O=C(c1ccccn1)N(CC1CCCO1)C1(C(=O)NC2CCCCC2)CCCCC1 (stereo not given), which Potency is on record?
**A.** inconclusive: 56.2 µM [inhibitor, partial curve, poor fit]

**Q.** COC(=O)C1=C(N)OC2=C(C(=O)CC(C)(C)C2)C1c1ccccc1OC (stereo not given) was tested. Which Potency did it give?
**A.** inconclusive: 7.08 µM [inhibitor, single point]

**Q.** Cc1cc(NCCC(C)C)n2nc(C)c(-c3ccccc3)c2n1 was tested. Which Potency did it give?
**A.** inactive

**Q.** CN(C)c1ccc(C(=S)N2CCOCC2)cc1Br was tested. Which Potency did it give?
**A.** inconclusive: 28.2 µM [inhibitor, single point]

**Q.** CC(c1ccccc1)C1CC(=O)N(Cc2ccco2)C1=O (stereo not given) was tested. Which Potency did it give?
**A.** inconclusive: 3.16 µM [inhibitor, single point]

**Q.** Which Potency does the source give for Cc1ccc2c(c1)-c1c(ssc1=S)C(C)(C)N2C(=O)CSc1nncn1C here?
**A.** inconclusive: 7.08 µM [inhibitor, single point]

**Q.** Cc1ccc(-n2nc(-c3cccnc3)cc2C(=O)N2CCOCC2)c(C)c1 was tested. Which Potency did it give?
**A.** active: 44.7 µM

**Q.** CCc1cc(N2CCOCC2)cc2c1[nH]c1ccccc12 was tested. Which Potency did it give?
**A.** active: 14.1 µM

**Q.** How did the Potency turn out when COc1cc(NC(=O)CSc2nccc(C)n2)c(C)cc1[N+](=O)[O-] was run?
**A.** inconclusive: 31.6 µM [inhibitor, single point]

**Q.** For CN(C)c1ccc(NC(=O)CCSc2nc(-c3ccco3)cc(C(F)(F)F)n2)cc1, which Potency is on record?
**A.** active: 0.708 µM

**Q.** CCn1c(=O)n(CC)c2cc(N3CCCC3)c(NC(=O)c3cc(Br)ccc3OC)cc21 was tested. Which Potency did it give?
**A.** active: 44.7 µM

**Q.** How did the Potency turn out when Cn1c(=O)n(C)c2cc(NS(=O)(=O)c3ccc(Br)cc3)c(NCc3ccccc3)cc21 was run?
**A.** inconclusive: 14.1 µM [inhibitor, partial curve]

**Q.** How did the Potency turn out when CCOc1ccc(OCC(=O)OCC(=O)NCC2CCCO2)cc1 (stereo not given) was run?
**A.** inconclusive: 35.5 µM [inhibitor, single point]

**Q.** O=c1c2ccccc2nc2n1CC/C2=C/N1CCN(c2cccc(C(F)(F)F)c2)CC1 was tested. Which Potency did it give?
**A.** active: 10 µM

**Q.** For CC(=O)Nc1ccc(S(=O)(=O)NCC(=O)N2CCN(S(=O)(=O)c3cccs3)CC2)cc1, which activity, negative = inhibition is on record?
**A.** inactive: -47.8% [at 12.7 µM]

**Q.** How did the Potency turn out when CCn1c(C)c(C)c2cc(C(=O)NCCCN3CCCC3)ccc21 was run?
**A.** active: 56.2 µM

**Q.** Which Potency does the source give for COCCCNCCCOc1ccc(Cl)cc1Br here?
**A.** inconclusive: 7.08 µM [inhibitor, full curve, poor fit]

**Q.** For CCCc1[nH]c2ccc(C(=O)OC)cc2c1CCC, which Potency is on record?
**A.** inconclusive: 89.1 µM [inhibitor, single point]

**Q.** For COc1cc(Br)c(C2CC(=O)Nc3cc(OC)c(OC)c(OC)c32)cc1OC (stereo not given), which Potency is on record?
**A.** inactive

**Q.** How did the Potency turn out when CC1CC1C(=O)OCC(=O)Nc1ncc(Cl)cc1Cl (stereo not given) was run?
**A.** inconclusive: 89.1 µM [inhibitor, single point]

**Q.** How did the activity, negative = inhibition turn out when O=C(CSCc1ccco1)c1ccc(Cl)s1 was run?
**A.** inconclusive: -54.8% [inhibitor]

**Q.** For CC1CCc2c(sc(NC(=O)CCCOc3ccc(C(C)(C)C)cc3)c2C(N)=O)C1 (stereo not given), which Potency is on record?
**A.** inconclusive: 39.8 µM [inhibitor, single point]

**Q.** Which Potency does the source give for COC(=O)c1cccc(-n2c(=O)n(Cc3ccccc3)c(=O)c3[nH]cnc32)c1C here?
**A.** active: 17.8 µM

**Q.** How did the Potency turn out when COc1ccc(C2c3c(oc4ccc(Cl)cc4c3=O)C(=O)N2CCN2CCOCC2)cc1 (stereo not given) was run?
**A.** inconclusive: 89.1 µM [inhibitor, single point]

**Q.** Which Potency does the source give for CC(=O)c1cnc(Nc2ccc(C)cc2)s1 here?
**A.** inconclusive: 35.5 µM [inhibitor, partial curve]

**Q.** CC(C)c1ccc(O)c(NC(=O)c2cncc(Br)c2)c1 was tested. Which Potency did it give?
**A.** active: 39.8 µM

**Q.** How did the Potency turn out when O=C(Nc1ccccc1Cl)Nc1ccnn1C1CCN(C(=O)CCN2CCCO2)CC1 was run?
**A.** inconclusive: 89.1 µM [inhibitor, single point]

**Q.** CCOCc1cnc(C)nc1NCC(=O)c1c(C)[nH]c2ccccc12 was tested. Which activity, negative = inhibition did it give?
**A.** inconclusive: -95.4% [inhibitor]

**Q.** O=S(=O)(Nc1cccc(-c2ccc(N3CCCCC3)nn2)c1)c1cccc(F)c1 was tested. Which Potency did it give?
**A.** inactive

Reference: PubChem BioAssay AID504332 (National Center for Advancing Translational Sciences (NCATS), 2011)
